Several values for one entry are separate records, joined by “and”; a condition that tells them apart may be missing. Identical values can stand only once. The inconclusive results got no clear call from the source; some entries with a clear call stand among them for comparison. For some of these results: Potencies of inconclusive entries are doubtful fits and often do not repeat. Activity calls are given as the source filed them. The call rests on the fitted dose curve; in most records, active means well fitted curve in the direction sought with a large enough effect; inconclusive means small, poorly fitted or top-dose-only effect, or another doubt; inactive means no such curve, though single readings can be large; an effect the other way counts as inactive or inconclusive.
How the values were obtained:
[1] = NS1 protein of Zika virus - qHTS assay to identify small molecule inhibitors in human HEK 293 cells (AID 1347053); further: potency means the concentration at half of the fitted maximal effect; nearly all actives have a fitted effect of over 55% in size
Method in brief: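 HEK 293 cells, seeded 20 h at 37 C, were pretreated with compound 1 h, then infected with ZIKV MR766 (MOI = 0.5) for 24 h. NS1 was read by TR-FRET with two anti-NS1 antibodies, normalized to uninfected and infected wells.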

[2] = qHTS of pediatric cancer cell lines to identify multiple opportunities for drug repurposing: Primary screen for DAOY cells (AID 1347090); details: DAOY medulloblastoma viability, CellTiter-Glo luminescence, 48 h; activity change, negative = cytotoxic: at 46 µM (top of the series) unless noted; further: nearly all actives have a fitted effect of over 55% in size; further: potency means the concentration at half of the fitted maximal effect;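 on activity change, negative = cytotoxic: plate controls were DMSO for no effect and bortezomib for full effect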
Method in brief: (§1)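 Cell viability, CellTiter-Glo luminescence; 500-1,000 cells/well, 8- or 11-point titration, 48 h compound exposure at 37 degrees C, 5% CO2. Controls: DMSO neutral, bortezomib 2.3 µM final as positive.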

[3] = qHTS of pediatric cancer cell lines to identify multiple opportunities for drug repurposing: Primary screen for SJ-GBM2 cells (AID 1347091); further: potency means the concentration at half of the fitted maximal effect;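 on activity change, negative = cytotoxic: plate controls were DMSO neutral control for no effect and bortezomib for full effect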
Method in brief: as §1

[4] = target: Parathyroid hormone/parathyroid hormone-related peptide receptor (Homo sapiens) (UniProt Q03431); test: qHTS for PTHR1 Agonists: Optimization Screen against the NCGC LOPAC library (AID 1347079); details: HEK293 GP2 PTHR1 GloSensor cAMP luminescence, 1 h; at 57.1 µM (top of the series);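 further: GloSensor cAMP luminescence in HEK-293 GP2 cells expressing human PTHR1 with IBMX; 0% is about no effect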
UniProt Q03431, sequence (Q03431 whole entry, looked up): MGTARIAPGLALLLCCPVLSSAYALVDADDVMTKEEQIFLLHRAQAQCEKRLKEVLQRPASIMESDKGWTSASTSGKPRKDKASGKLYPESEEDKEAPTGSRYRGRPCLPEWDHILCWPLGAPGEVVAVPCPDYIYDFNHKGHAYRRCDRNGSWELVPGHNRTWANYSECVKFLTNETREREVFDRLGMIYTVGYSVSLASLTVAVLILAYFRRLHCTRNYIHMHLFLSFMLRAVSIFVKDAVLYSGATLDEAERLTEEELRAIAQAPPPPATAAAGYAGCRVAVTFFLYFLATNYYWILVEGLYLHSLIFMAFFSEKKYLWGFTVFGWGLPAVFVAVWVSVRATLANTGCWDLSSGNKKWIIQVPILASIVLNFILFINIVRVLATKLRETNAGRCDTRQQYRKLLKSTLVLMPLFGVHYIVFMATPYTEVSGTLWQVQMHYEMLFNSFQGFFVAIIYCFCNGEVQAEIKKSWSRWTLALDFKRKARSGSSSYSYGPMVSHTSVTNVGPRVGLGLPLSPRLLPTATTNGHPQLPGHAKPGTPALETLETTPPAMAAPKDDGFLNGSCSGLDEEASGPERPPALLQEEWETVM
Method in brief: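 Agonist readout: GloSensor cAMP luminescence, read after 15 min at room temperature. HEK-293-derived GP2 line carries PTHR1; compounds tested as a titration for 1 hr at 37C in presence of IBMX. M-PTH (1-15) served as control.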

[5] = qHTS of pediatric cancer cell lines to identify multiple opportunities for drug repurposing: Primary screen for TC32 cells (AID 1347089); further: nearly all actives have a fitted effect of over 60% in size; further: potency means the concentration at half of the fitted maximal effect; on activity change, negative = cytotoxic: on the % scale 0 is the no-effect control and ±100 the full control effect
Method in brief: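 Luminescent CellTiter-Glo read-out of metabolically active TC32 cells after 48 h compound exposure. Primary: MIPE 11-point, 0.78 nM–46 µM; NPC 8-point, 0.59 nM–46 µM. Confirmatory: 11-point dilutions.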
Tags describe the fitted curve by direction and shape.

Structure (SMILES): CC[C@]1(O)C[C@@H]2CN(CCc3c([nH]c4ccccc34)[C@@](C(=O)OC)(c3cc4c(cc3OC)N(C=O)[C@@H]3C45CCN4CC=C[C@](CC)([C@H]45)[C@@H](OC(C)=O)[C@]3(O)C(=O)OC)C2)C1 (stereo partly specified)
- Potency [1]: inconclusive: 1.32 µM [inhibitor, single point]
- Potency [2]: inconclusive: 23.5 µM [cytotoxic, partial curve, poor fit]
- Potency [3]: inconclusive: 14.8 µM [cytotoxic, partial curve, poor fit]

Structure (SMILES): CC1=NS(=O)(=O)c2cc(Cl)ccc2N1
- activation [4]: inactive: 27.3%

Structure (SMILES): COc1cc2nc(N3CCCN(C)CC3)nc(NC3CCN(Cc4ccccc4)CC3)c2cc1OC
- Potency [3]: active: 14.8 µM

Structure (SMILES): O=C1NC(=O)C(c2ccccc2[N+](=O)[O-])=C1Nc1ccc(O)c(Cl)c1
- Potency [3]: inconclusive: 33.2 µM [cytotoxic, single point]

Structure (SMILES): CC1(C)CC(O)CC(C)(C)N1[O]
- Potency [5]: inactive
- Potency [2]: inactive
- Potency [3]: inconclusive: 10.5 µM [cytotoxic, single point]

Structure (SMILES): Cc1cc(C(C)(C)C)c(O)c(C)c1CC1=NCCN1
- Potency [5]: inactive
- Potency [3]: inactive

Structure (SMILES): CC(=O)Oc1ccccc1C(=O)Nc1ncc([N+](=O)[O-])s1
- Potency [5]: inactive
- Potency [2]: active: 13.6 µM and inconclusive: 13.3 µM [cytotoxic, partial curve]
- Potency [3]: active: 8.55 µM and inconclusive: 33.5 µM [cytotoxic, single point]

Structure (SMILES): Nc1ccc([N+](=O)[O-])cc1O
- Potency [5]: inconclusive: 24.1 µM [cytotoxic, partial curve, poor fit]
- Potency [3]: inconclusive: 21.7 µM [cytotoxic, partial curve]
